The structures appear in SMILES notation. Among all 52,000 compounds or so, about 1,700 (3.3%) were called active. Rule as the data show it: active = survival mostly below about 52% (no sharp cut-off); inactive = mostly above about 56%. The list shows a part of the results.

The test system of this assay is Wild type. The assay is described as follows: S. aureus survival, RN4220 and DeltatarO strains – OD600, teichoic acid synthesis inhibitors, primary screen (AID 463173). Particulars: S. aureus RN4220 wild type/DeltatarO growth, OD600, 18 h, hits give low values, screened at 18.75 µg/mL (by protocol).
On to `CCOC(=O)c1[nH]c2ccccc2c1NC(=O)c1ccccc1F`, for which the survival is inactive: 78%.

As for `CC(C)CC(C(N)=O)N1C(=O)c2ccccc2C1=O` (centres undefined), the survival was inactive: 108%. Take `CCN1CCN(CCCNC(=O)CS(=O)(=O)Cc2nc(-c3cccc(OC)c3)oc2C)CC1`: the survival is inactive: 81%. As for `Cc1oc2ncnc(N3CCCCC3)c2c1C(=O)NCC1CCN(Cc2cccc(F)c2)CC1`, the survival was active: -6%. Turning to `COc1cccc2c1cc1c(=O)n(CC(=O)N3CCCCC3)nc(C)n12`, the survival is inactive: 88%.

Consider `Cc1ccc(C(=O)Nc2ccc(C(=O)O)cc2)cc1S(=O)(=O)Nc1ccccc1`, for which the survival was inactive: 73%.

For the compound `CCC(C)NS(=O)(=O)c1ccc(N2CCCCS2(=O)=O)cc1` (centres undefined), the survival is inactive: 135%. Then `COc1ccc(C)cc1NC(=O)C1CCCN(S(=O)(=O)c2ccc3c(c2)CCCN3C(C)=O)C1` (centres undefined), with inactive: 84%. Then `O=c1c2oc3ccccc3c2n(Cc2ccc(Cl)cc2)c(=O)n1Cc1ccc2c(c1)OCO2`, with inactive: 86%; and `Fc1cccc(NCc2ccccc2-c2nnc(-c3ccccc3Cl)o2)c1`, with inactive: 149%. As to `Cc1ccc(-n2c3c(c(=O)[nH]c2=O)C(NS(=O)(=O)c2ccc(Cl)cc2)(C(F)(F)F)C(=O)N3)cc1` (centres undefined), the survival is inactive: 81%. With `COCCNC(=O)CSc1nc2cc3c(cc2c(=O)n1CCCC(=O)NCCc1ccc(OC)c(OC)c1)OCO3`, the survival was inactive: 57%. Regarding `CCC(CC)C(=O)Nc1nnc(SCc2cc(=O)c3ccccc3[nH]2)s1`, the survival was inactive: 115%.

With `CCOCCCNC(=O)CN1C(=O)c2cccnc2Sc2ccccc21`, the survival was inactive: 71%.

With `CCCCNC(=O)CCCN1C(=O)CCn2nc(-c3cccn3C)cc21`, the survival is inactive: 65%. Next, `Cc1ccc(Cl)cc1N1CCN(C2(c3ccccc3)C(=O)c3ccccc3C2=O)CC1`: inactive: 108%. Then `COc1cccc(NC(=O)Cn2c(=O)n(-c3cccc(OC)c3)c(=O)c3sc4ccccc4c32)c1`, with inactive: 72%.

Turning to `CCC(C)(C)NC(=O)C1CCC(CNS(=O)(=O)c2ccc3c(c2)CC(C)N3C(C)=O)CC1` (centres undefined), the survival is inactive: 95%. Then `COc1ccc2c(CNCc3ccco3)c(C(=O)O)n(Cc3ccc(F)cc3Cl)c2c1`, with inactive: 92%; and `NC(=S)NN=C1c2cc(S(=O)(=O)N3CCOCC3)ccc2-c2ccc(S(=O)(=O)N3CCOCC3)cc21`, with inactive: 114%; and `Fc1ccccc1N1CCN(c2nnc(C(F)(F)F)c3nnn(Cc4ccccc4)c23)CC1`, with inactive: 89%. Next, `O=C(Cn1c(SCCOc2ccccc2Cl)nc2ccccc21)N1CCOCC1`: inactive: 68%. Next, `Cc1nnc(N(C)C(=O)CNC(=O)c2ccccc2)s1`: inactive: 98%; `COc1ccc(CCNc2ncnc3c2nnn3C)cc1OC`: inactive: 73%; `CCc1ccc(NC(=O)CSc2nc(-c3ccccc3)no2)cc1`: inactive: 68%. In the case of `CN1CCN(C(=O)Nc2ccc(Cc3ccc(NC(=O)N4CCN(C)CC4)cc3)cc2)CC1`, the survival was inactive: 100%.

On to `CN(C)S(=O)(=O)N(CC(=O)Nc1ccc(Br)cc1F)c1ccccc1`, for which the survival was inactive: 85%. Turning to `Oc1ccc(Nc2nc(-c3ccc(O)cc3)cs2)cc1`, the survival was inactive: 34%. In the case of `COc1cccc(C(c2sc3nc(-c4ccco4)nn3c2O)N2CCCC2)c1` (centres undefined), the survival is inactive: 78%. With `COc1ccccc1Cn1ccn(CC(=O)Nc2c(C)cc(C)cc2C)c(=O)c1=O`, the survival is inactive: 81%. Then `CC(C)C(=O)NC1CC(=O)N(c2ccc3c(c2)OCCO3)C1` (centres undefined), with inactive: 136%.

For `Cc1nnc(N2CCN(c3ccc(Cl)cc3)CC2)c2c1nnn2Cc1ccc(F)cc1`, the survival is inactive: 89%. Next, `CCc1ccc(NC(=O)C(=O)NCCc2sc(-c3ccc(OC)c(OC)c3)nc2C)cc1`: inactive: 77%.

On to `CC1CCCCN1C(=O)c1ccc2c(c1)N(Cc1ccc(Cl)cc1)C(=O)c1ccccc1S2=O` (centres undefined), for which the survival was inactive: 110%. Next, `COc1cc(OC)cc(C(=O)NCCc2csc(-c3cccc(C)c3)n2)c1`: inactive: 78%; `CN(C1CCCCC1)S(=O)(=O)c1ccc(F)c(C(=O)Nc2ccc(C(F)(F)F)cc2)c1`: inactive: 88%; `COc1ccc(NC(=O)c2c(NCc3cccs3)sc3c2CCCCC3)cc1`: inactive: 71%.

On to `Cc1c(C(=O)Nc2cccc(F)c2)sc2nc(-c3cc4ccccc4oc3=O)[nH]c(=O)c12`, for which the survival is inactive: 72%. Then `Cc1ccc(-n2nc(C)c3c(C)cc(=O)n(CC(=O)Nc4ccc(C(C)C)cc4)c32)cc1`, with inactive: 153%; and `CCOC(=O)c1[nH]c2ccccc2c1NC(=O)c1c(F)cccc1F`, with inactive: 173%. Consider `O=C(NCc1ccccc1Cl)c1ccc2c(c1)N(Cc1ccccc1)C(=O)c1ccccc1S2`, for which the survival was inactive: 148%. Regarding `CCOC(=O)c1sc2ncn(CC(=O)Nc3cccc(C)c3)c(=O)c2c1C`, the survival was inactive: 88%. Next, `C1CCC(Nc2nnnn2C2CCCCC2)CC1`: inactive: 102%; `CCc1cccc(NC(=O)c2cc(-c3ccccc3)n[nH]2)c1`: inactive: 138%; `O=C(Nc1cccc(Cl)c1)C1CCN(c2nc3ccccc3nc2C(F)(F)F)CC1`: inactive: 79%. Then `COc1cc(NC(C)=O)ccc1-c1cc2ccccc2oc1=O`, with inactive: 105%. Take `COc1cccc(OCCCn2c(-c3ccc(Cl)cc3)nc3ccccc3c2=O)c1`: the survival was inactive: 68%. Next, `COc1ccc(Nc2ncc(C(=O)N3CCN(c4ccc(OC)cc4)CC3)c3ccccc23)cc1`: inactive: 83%; `O=C(c1ccc2c(c1)CCN2S(=O)(=O)c1ccc(Cl)cc1)N1CCN(c2ccccc2F)CC1`: inactive: 83%; `Cc1ccccc1Cn1c(=O)n(Cc2ccco2)c(=O)c2oc3ccccc3c21`: inactive: 92%.

Take `CCCCNC(=O)c1cnc2sc(N3CCCCC3)nn2c1=O`: the survival is inactive: 69%. Take `Cc1cc(OC(C)C(=O)N2CCN(CCc3ccccn3)CC2)ccc1Cl` (centres undefined): the survival was inactive: 78%.

Take `Cc1nc2c(c(SCC(=O)Nc3ccccc3C(F)(F)F)n1)CCC2`: the survival is inactive: 84%. Then `O=C(O)C1C2C=CC(O2)C1C(=O)N1CCOCC1` (centres undefined), with inactive: 96%; and `CN(C)c1ccc(CN2CCc3nc(N4CCN(c5ccccn5)CC4)ncc3C2)cc1`, with inactive: 51%.

Regarding `CCC(CC)C(=O)Nc1ccc(OCc2cc(=O)n3ccc(C)cc3n2)cc1`, the survival was inactive: 131%. Next, `CCOC(=O)C1CCN(C(=O)c2nn(-c3ccc(C)cc3)c(=O)c3c2c2ccccc2n3C)CC1`: inactive: 73%; `CCOc1ccccc1N1CC(c2nc3ccccc3n2CCCOc2ccccc2)CC1=O` (centres undefined): inactive: 58%. With `CC(C)N(Cc1ccccc1)C(=O)c1cc2ccc3cccnc3c2[nH]1`, the survival is inactive: 88%. As for `COc1ccc(C(C(=O)Nc2ccc(C(C)C)cc2)N(C)C(=O)Cc2cccs2)cc1` (centres undefined), the survival is inactive: 135%. Regarding `Cc1ccc(OC(=O)CCC(=O)N2CCN(C(=O)CCC(=O)Oc3ccc(C)cc3)CC2)cc1`, the survival is inactive: 111%. Regarding `CC(C)CC(=O)N1CCN(S(=O)(=O)c2ccccc2)CC1`, the survival is inactive: 105%.

Take `Cc1oc(CC(C)C)cc1C(N)=O`: the survival was inactive: 109%. Next, `O=C(Nc1ccc(OC(F)(F)F)cc1)C1CCCN(S(=O)(=O)c2ccc(Br)s2)C1` (centres undefined): inactive: 69%.

With `O=C(Cc1csc2ccccc12)NCc1ccc(F)cc1`, the survival is inactive: 79%. On to `Cc1ccccc1Nc1nnc(-c2ccc(C)c(S(=O)(=O)N3CCN(C)CC3)c2)c2ccccc12`, for which the survival is inactive: 85%. Next, `COc1cccc(NC(c2nnc(-c3ccccc3)o2)c2ccc(F)cc2Cl)c1` (centres undefined): inactive: 56%; `COc1ccc(C(=O)NCC(c2cccnc2)N2CCN(c3ccccc3OC)CC2)cc1` (centres undefined): inactive: 82%. With `CC(C)(C)c1ccc(C(=O)Nc2nc3nc(-c4ccccc4)cc(=O)n3[nH]2)cc1`, the survival is inactive: 106%. As for `Cc1ccc(NC(=O)Cn2c(SCc3cccc(F)c3)nc3ccncc32)c(C)c1`, the survival was inactive: 69%. Take `C#CC(C)(CC)NC(=O)Cn1nnc(-c2ccc(OCc3ccccc3Cl)cc2)n1` (centres undefined): the survival was inactive: 74%. Next, `COc1ccc(Br)cc1CNC(=O)CN1C(=O)CCCc2ccccc21`: inactive: 89%; `Cc1c(CCC(=O)NCc2ccc(F)cc2)c(=O)oc2cc(O)ccc12`: inactive: 116%. As for `COCCCNC(=O)C1CCCN(c2ncnc3onc(C)c23)C1` (centres undefined), the survival is inactive: 77%. On to `COc1ccc(CCNC(=O)c2ccc3c(Cl)c4c(nc3c2)CCCC4)cc1OC`, for which the survival is inactive: 76%. As to `CN1CCN(C(=O)C23CC4CC(CC(C4)C2)C3)CC1`, the survival is inactive: 110%. In the case of `Cc1ccccc1OCC(=O)Nc1ccc(C(=O)OCc2cc(=O)n3c(C)csc3n2)cc1`, the survival was inactive: 134%. With `Cc1ccc2oc(C(=O)Nc3nc(-c4ccc(F)cc4)ns3)c(C)c2c1`, the survival was inactive: 87%. In the case of `CCc1ccc(C(=O)c2cn(CC(=O)Nc3ccc4c(c3)OCCO4)c3ccc(CC)cc3c2=O)cc1`, the survival was inactive: 88%. Next, `COc1ccc(C2c3c(oc4cc(C)cc(C)c4c3=O)C(=O)N2Cc2ccco2)cc1OC` (centres undefined): inactive: 91%; `COc1cccc(NC(=O)CSC2=Nc3ccccc3C3=NC(CC(=O)NCc4cccs4)C(=O)N23)c1` (centres undefined): inactive: 77%; `COc1ccc(Cn2c(CNC(=O)Cc3cccc([N+](=O)[O-])c3)nc3cccnc32)cc1`: active: -6%. Then `CC(=O)N1CCN(c2nc3c(F)cc(F)cc3s2)CC1`, with inactive: 80%; and `COc1ccc(CNC(=O)CSCc2cnn(-c3ccccc3)c2-n2cccc2)cc1OC`, with inactive: 125%; and `Cc1cccc(N2CCN(C(=O)c3cc4c(=O)[nH]c5ccc(C)cc5c4s3)CC2C)c1` (centres undefined), with inactive: 124%. Then `Cc1cc(C)cc(NC(=O)c2sc3nc[nH]c(=O)c3c2C)c1`, with inactive: 77%; and `CCOC(=O)Cn1c(=O)n(CC2CCCO2)c2nc(-c3ccccc3Cl)nc(C(N)=O)c21` (centres undefined), with inactive: 55%. On to `COc1ccccc1C(=O)Nc1c(C(=O)c2ccccc2)oc2ccccc12`, for which the survival was active: -3%.

With `CCOc1ccc(N(CC)C(=O)c2noc3c2COc2ccc(C)cc2-3)cc1`, the survival was inactive: 94%.

The values are drawn from PubChem BioAssay AID463173 (ICCB-Longwood Screening Facility, Harvard Medical School, 2010).
